# Measured values from the supplement of paper PMC8728848.
# This is one part of the list.
# B1: UDA (Urtica dioica), P11218 (protein)
# chain: MMMRFLSAVVIMSSAMAVGLVSAQRCGSQGGGGTCPALWCCSIWGWCGDSEPYCGRTCENKCWSGERSDHRCGAAVGNPPCGQDRCCSVHGWCGGGNDYCSGSKCQYRCSSSVRGPRVALSGNSTANSIGNVVVTEPLFDQMFSHRKDCPSQGFYSYHSFLVAAESFPAFGTIGDVATRKREVAAFLAHISQATSGERSDVENPHAWGLCHINTTTVTENDFCTSSDWPCAAGKKYSPRGPIQLTHNFNYGLAGQAIGEDLIQNPDLVEKDPIISFKTALWFWMSQHDNKPSCHDIVLNANSAANRIPNKGVIGNIISRAFGHDDFAVRSSSIGFYKRYCDMLGVSYGHDLKYWFDNTPSSEFQRIQMRVAA
# Columns and labels:
# Test in all cases: glycan array binding signal (z-score within array); higher = stronger binding
# Settings in all cases: glycan notation: IUPAC condensed, linker removed
# Gal(a1-4)GlcNAc = target: Gal(a1-4)GlcNAc
# How it was run: (§1)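 Arrays were curated from the Consortium for Functional Glycomics database, 3228 in total, and kept only where the protein sequence was available. Binding is expressed as a within-array Z-score. This score was averaged across arrays of the same protein sequence at different concentrations or buffers and across linkers, and negative values can be read as non-binding.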
# Gal(a1-6)Glc = target: Gal(a1-6)Glc
# How it was run: as §1
# Gal(b1-2)Gal = target: Gal(b1-2)Gal
# How it was run: as §1
# Gal(b1-3)Gal = target: Gal(b1-3)Gal
# How it was run: as §1
# Gal(b1-3)Gal(b1-4)GlcNAc = target: Gal(b1-3)Gal(b1-4)GlcNAc
# How it was run: as §1
# Gal(b1-3)GalNAc = target: Gal(b1-3)GalNAc
# How it was run: as §1
# [1] = target: Gal(b1-3)GalNAc(a1-3)[Fuc(a1-2)]Gal(b1-4)Glc
# How it was run: as §1
# [2] = target: Gal(b1-3)GalNAc(a1-3)[Fuc(a1-2)]Gal(b1-4)GlcNAc
# How it was run: as §1
# Gal(b1-3)GalNAc(b1-3)Gal = target: Gal(b1-3)GalNAc(b1-3)Gal
# How it was run: as §1
# [3] = target: Gal(b1-3)GalNAc(b1-3)Gal(a1-4)Gal(b1-4)Glc
# How it was run: as §1
# [4] = target: Gal(b1-3)GalNAc(b1-4)Gal(b1-4)Glc
# How it was run: as §1
# [5] = target: Gal(b1-3)GalNAc(b1-4)[Neu5Ac(a2-3)]Gal(b1-4)Glc
# How it was run: as §1
# Gal(b1-3)GlcNAc = target: Gal(b1-3)GlcNAc
# How it was run: as §1
# [6] = target: Gal(b1-3)GlcNAc(a1-3)Gal(b1-4)GlcNAc
# How it was run: as §1
# [7] = target: Gal(b1-3)GlcNAc(a1-6)Gal(b1-4)GlcNAc
# How it was run: as §1
# Gal(b1-3)GlcNAc(b1-2)Man = target: Gal(b1-3)GlcNAc(b1-2)Man
# How it was run: as §1
# [8] = target: Gal(b1-3)GlcNAc(b1-2)Man(a1-3)[Gal(b1-3)GlcNAc(b1-2)Man(a1-6)]Man(b1-4)GlcNAc(b1-4)GlcNAc
# How it was run: as §1
# [9] = target: Gal(b1-3)GlcNAc(b1-2)Man(a1-3)[Gal(b1-3)GlcNAc(b1-2)Man(a1-6)]Man(b1-4)GlcNAc(b1-4)[Fuc(a1-6)]GlcNAc
# How it was run: as §1
# [10] = target: Gal(b1-3)GlcNAc(b1-2)Man(a1-3)[GlcNAc(b1-4)][Gal(b1-3)GlcNAc(b1-2)Man(a1-6)]Man(b1-4)GlcNAc(b1-4)GlcNAc
# How it was run: as §1
# [11] = target: Gal(b1-3)GlcNAc(b1-2)[Gal(b1-3)GlcNAc(b1-6)]Man(a1-6)[Gal(b1-3)GlcNAc(b1-2)Man(a1-3)]Man(b1-4)GlcNAc(b1-4)GlcNAc
# How it was run: as §1
# [12] = target: Gal(b1-3)GlcNAc(b1-3)Gal(b1-3)GlcNAc
# How it was run: as §1
# [13] = target: Gal(b1-3)GlcNAc(b1-3)Gal(b1-4)Glc
# How it was run: as §1
# [14] = target: Gal(b1-3)GlcNAc(b1-3)Gal(b1-4)GlcNAc
# How it was run: as §1
# [15] = target: Gal(b1-3)GlcNAc(b1-3)Gal(b1-4)GlcNAc(b1-2)Man(a1-3)[Gal(b1-3)GlcNAc(b1-3)Gal(b1-4)GlcNAc(b1-2)Man(a1-6)]Man(b1-4)GlcNAc(b1-4)GlcNAc
# How it was run: as §1
# [16] = target: Gal(b1-3)GlcNAc(b1-3)Gal(b1-4)GlcNAc(b1-2)[Gal(b1-3)GlcNAc(b1-3)Gal(b1-4)GlcNAc(b1-6)]Man(a1-6)[Gal(b1-3)GlcNAc(b1-3)Gal(b1-4)GlcNAc(b1-2)Man(a1-3)]Man(b1-4)GlcNAc(b1-4)[Fuc(a1-6)]GlcNAc
# How it was run: as §1
# [17] = target: Gal(b1-3)GlcNAc(b1-3)Gal(b1-4)GlcNAc(b1-3)Gal(b1-4)GlcNAc(b1-2)[Gal(b1-3)GlcNAc(b1-3)Gal(b1-4)GlcNAc(b1-3)Gal(b1-4)GlcNAc(b1-6)]Man(a1-6)[Gal(b1-3)GlcNAc(b1-3)Gal(b1-4)GlcNAc(b1-3)Gal(b1-4)GlcNAc(b1-2)Man(a1-3)]Man(b1-4)GlcNAc(b1-4)[Fuc(a1-6)]GlcNAc
# How it was run: as §1
# [18] = target: Gal(b1-3)GlcNAc(b1-3)Gal(b1-4)GlcNAc(b1-6)[Gal(b1-3)GlcNAc(b1-3)]Gal(b1-4)Glc
# How it was run: as §1
# [19] = target: Gal(b1-3)GlcNAc(b1-3)Gal(b1-4)[Fuc(a1-3)]GlcNAc
# How it was run: as §1
# [20] = target: Gal(b1-3)GlcNAc(b1-3)Gal(b1-4)[Fuc(a1-3)]GlcNAc(b1-6)[Gal(b1-3)GlcNAc(b1-3)]Gal(b1-4)Glc
# How it was run: as §1
# [21] = target: Gal(b1-3)GlcNAc(b1-3)GalNAc
# How it was run: as §1
# [22] = target: Gal(b1-3)GlcNAc(b1-6)Gal(b1-4)GlcNAc
# How it was run: as §1
# [23] = target: Gal(b1-3)GlcNAc(b1-6)GalNAc
# How it was run: as §1
# [24] = target: Gal(b1-3)GlcNAc(b1-6)[Gal(b1-3)]GalNAc
# How it was run: as §1
# Gal(b1-3)GlcNAc6S = target: Gal(b1-3)GlcNAc6S
# How it was run: as §1
# [25] = target: Gal(b1-3)[Fuc(a1-4)]GlcNAc
# How it was run: as §1
# [26] = target: Gal(b1-3)[Fuc(a1-4)]GlcNAc(b1-2)Man
# How it was run: as §1
# [27] = target: Gal(b1-3)[Fuc(a1-4)]GlcNAc(b1-2)Man(a1-3)[Gal(b1-3)[Fuc(a1-4)]GlcNAc(b1-2)Man(a1-6)]Man(b1-4)GlcNAc(b1-4)[Fuc(a1-6)]GlcNAc
# How it was run: as §1
binder,measurement,setting,value
B1,glycan array binding signal (z-score),Gal(a1-4)GlcNAc,-0.155
same,glycan array binding signal (z-score),Gal(a1-6)Glc,-0.191
same,glycan array binding signal (z-score),Gal(b1-2)Gal,-0.191
same,glycan array binding signal (z-score),Gal(b1-3)Gal,-0.186
same,glycan array binding signal (z-score),Gal(b1-3)Gal(b1-4)GlcNAc,-0.167
same,glycan array binding signal (z-score),Gal(b1-3)GalNAc,-0.178
same,glycan array binding signal (z-score),[1],-0.177
same,glycan array binding signal (z-score),[2],-0.154
same,glycan array binding signal (z-score),Gal(b1-3)GalNAc(b1-3)Gal,-0.178
same,glycan array binding signal (z-score),[3],-0.163
same,glycan array binding signal (z-score),[4],-0.186
same,glycan array binding signal (z-score),[5],-0.189
same,glycan array binding signal (z-score),Gal(b1-3)GlcNAc,-0.184
same,glycan array binding signal (z-score),[6],-0.032
same,glycan array binding signal (z-score),[7],-0.166
same,glycan array binding signal (z-score),Gal(b1-3)GlcNAc(b1-2)Man,-0.182
same,glycan array binding signal (z-score),[8],0.04
same,glycan array binding signal (z-score),[9],-0.156
same,glycan array binding signal (z-score),[10],-0.144
same,glycan array binding signal (z-score),[11],-0.16
same,glycan array binding signal (z-score),[12],-0.165
same,glycan array binding signal (z-score),[13],-0.215
same,glycan array binding signal (z-score),[14],-0.151
same,glycan array binding signal (z-score),[15],-0.157
same,glycan array binding signal (z-score),[16],-0.086
same,glycan array binding signal (z-score),[17],-0.083
same,glycan array binding signal (z-score),[18],-0.094
same,glycan array binding signal (z-score),[19],-0.176
same,glycan array binding signal (z-score),[20],-0.175
same,glycan array binding signal (z-score),[21],-0.175
same,glycan array binding signal (z-score),[22],-0.182
same,glycan array binding signal (z-score),[23],-0.186
same,glycan array binding signal (z-score),[24],-0.177
same,glycan array binding signal (z-score),Gal(b1-3)GlcNAc6S,-0.184
same,glycan array binding signal (z-score),[25],-0.185
same,glycan array binding signal (z-score),[26],-0.168
same,glycan array binding signal (z-score),[27],-0.025
